This is one part of the list.
Experiments:
Test in all cases: glycan array binding signal (z-score within array); higher = stronger binding
Details in all cases: glycan notation: IUPAC condensed, linker removed
[1] = molecular target: Gal(b1-3)GlcNAc(b1-3)Gal(b1-4)GlcNAc(b1-2)Man(a1-3)[Gal(b1-3)GlcNAc(b1-3)Gal(b1-4)GlcNAc(b1-2)Man(a1-6)]Man(b1-4)GlcNAc(b1-4)GlcNAc
Method in brief: (§1)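 The binding signal is a Z-score computed within each array and averaged over linkers. Arrays of the same protein sequence at different concentrations or buffers were also averaged together. Data originate from 3228 arrays in the Consortium for Functional Glycomics database, kept only where the protein sequence was available.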

[2] = molecular target: Gal(b1-3)GlcNAc(b1-3)Gal(b1-4)GlcNAc(b1-2)[Gal(b1-3)GlcNAc(b1-3)Gal(b1-4)GlcNAc(b1-6)]Man(a1-6)[Gal(b1-3)GlcNAc(b1-3)Gal(b1-4)GlcNAc(b1-2)Man(a1-3)]Man(b1-4)GlcNAc(b1-4)[Fuc(a1-6)]GlcNAc
Method in brief: as §1

[3] = molecular target: Gal(b1-3)GlcNAc(b1-3)Gal(b1-4)GlcNAc(b1-3)Gal(b1-4)GlcNAc(b1-2)[Gal(b1-3)GlcNAc(b1-3)Gal(b1-4)GlcNAc(b1-3)Gal(b1-4)GlcNAc(b1-6)]Man(a1-6)[Gal(b1-3)GlcNAc(b1-3)Gal(b1-4)GlcNAc(b1-3)Gal(b1-4)GlcNAc(b1-2)Man(a1-3)]Man(b1-4)GlcNAc(b1-4)[Fuc(a1-6)]GlcNAc
Method in brief: as §1

[4] = molecular target: Gal(b1-3)GlcNAc(b1-3)Gal(b1-4)GlcNAc(b1-6)[Gal(b1-3)GlcNAc(b1-3)]Gal(b1-4)Glc
Method in brief: as §1

[5] = molecular target: Gal(b1-3)GlcNAc(b1-3)Gal(b1-4)[Fuc(a1-3)]GlcNAc
Method in brief: as §1

[6] = molecular target: Gal(b1-3)GlcNAc(b1-3)Gal(b1-4)[Fuc(a1-3)]GlcNAc(b1-6)[Gal(b1-3)GlcNAc(b1-3)]Gal(b1-4)Glc
Method in brief: as §1

[7] = molecular target: Gal(b1-3)GlcNAc(b1-3)GalNAc
Method in brief: as §1

[8] = molecular target: Gal(b1-3)GlcNAc(b1-6)Gal(b1-4)GlcNAc
Method in brief: as §1

[9] = molecular target: Gal(b1-3)GlcNAc(b1-6)GalNAc
Method in brief: as §1

[10] = molecular target: Gal(b1-3)GlcNAc(b1-6)[Gal(b1-3)]GalNAc
Method in brief: as §1

Gal(b1-3)GlcNAc6S = molecular target: Gal(b1-3)GlcNAc6S
Method in brief: as §1

[11] = molecular target: Gal(b1-3)[Fuc(a1-4)]GlcNAc
Method in brief: as §1

[12] = molecular target: Gal(b1-3)[Fuc(a1-4)]GlcNAc(b1-2)Man
Method in brief: as §1

[13] = molecular target: Gal(b1-3)[Fuc(a1-4)]GlcNAc(b1-2)Man(a1-3)[Gal(b1-3)[Fuc(a1-4)]GlcNAc(b1-2)Man(a1-6)]Man(b1-4)GlcNAc(b1-4)[Fuc(a1-6)]GlcNAc
Method in brief: as §1

[14] = molecular target: Gal(b1-3)[Fuc(a1-4)]GlcNAc(b1-3)Gal(b1-3)[Fuc(a1-4)]GlcNAc
Method in brief: as §1

[15] = molecular target: Gal(b1-3)[Fuc(a1-4)]GlcNAc(b1-3)Gal(b1-4)[Fuc(a1-3)]GlcNAc
Method in brief: as §1

[16] = molecular target: Gal(b1-3)[Fuc(a1-4)]GlcNAc(b1-6)GalNAc
Method in brief: as §1

[17] = molecular target: Gal(b1-3)[GlcNAc(b1-6)]GalNAc
Method in brief: as §1

[18] = molecular target: Gal(b1-3)[Neu5Ac(a2-6)]GalNAc
Method in brief: as §1

[19] = molecular target: Gal(b1-3)[Neu5Ac(a2-6)]GlcNAc(b1-4)Gal(b1-4)Glc
Method in brief: as §1

[20] = molecular target: Gal(b1-3)[Neu5Ac(b2-6)]GalNAc
Method in brief: as §1

Gal(b1-4)Gal = molecular target: Gal(b1-4)Gal
Method in brief: as §1

[21] = molecular target: Gal(b1-4)GalNAc(a1-3)[Fuc(a1-2)]Gal(b1-4)GlcNAc
Method in brief: as §1

[22] = molecular target: Gal(b1-4)GalNAc(b1-3)[Fuc(a1-2)]Gal(b1-4)GlcNAc
Method in brief: as §1

Gal(b1-4)Glc = molecular target: Gal(b1-4)Glc
Method in brief: as §1

Gal(b1-4)Glc6S = molecular target: Gal(b1-4)Glc6S
Method in brief: as §1

Gal(b1-4)GlcNAc = molecular target: Gal(b1-4)GlcNAc
Method in brief: as §1

[23] = molecular target: Gal(b1-4)GlcNAc(a1-6)Gal(b1-4)GlcNAc
Method in brief: as §1

Gal(b1-4)GlcNAc(b1-2)Man = molecular target: Gal(b1-4)GlcNAc(b1-2)Man
Method in brief: as §1

[24] = molecular target: Gal(b1-4)GlcNAc(b1-2)Man(a1-3)Man(b1-4)GlcNAc(b1-4)GlcNAc
Method in brief: as §1

[25] = molecular target: Gal(b1-4)GlcNAc(b1-2)Man(a1-3)[Gal(b1-4)GlcNAc(b1-2)Man(a1-6)]Man(b1-4)GlcNAc(b1-4)GlcNAc
Method in brief: as §1

[26] = molecular target: Gal(b1-4)GlcNAc(b1-2)Man(a1-3)[Gal(b1-4)GlcNAc(b1-2)Man(a1-6)]Man(b1-4)GlcNAc(b1-4)[Fuc(a1-6)]GlcNAc
Method in brief: as §1

[27] = molecular target: Gal(b1-4)GlcNAc(b1-2)Man(a1-3)[Gal(b1-4)GlcNAc(b1-2)Man(a1-6)][Gal(b1-4)GlcNAc(b1-4)]Man(b1-4)GlcNAc(b1-4)[Fuc(a1-6)]GlcNAc
Method in brief: as §1

[28] = molecular target: Gal(b1-4)GlcNAc(b1-2)Man(a1-3)[Gal(b1-4)GlcNAc(b1-2)Man(a1-6)][GlcNAc(b1-4)]Man(b1-4)GlcNAc(b1-4)[Fuc(a1-6)]GlcNAc
Method in brief: as §1

[29] = molecular target: Gal(b1-4)GlcNAc(b1-2)Man(a1-3)[GlcNAc(b1-2)Man(a1-6)]Man(b1-4)GlcNAc(b1-4)GlcNAc
Method in brief: as §1

[30] = molecular target: Gal(b1-4)GlcNAc(b1-2)Man(a1-3)[GlcNAc(b1-4)][Gal(b1-4)GlcNAc(b1-2)Man(a1-6)]Man(b1-4)GlcNAc(b1-4)GlcNAc
Method in brief: as §1

[31] = molecular target: Gal(b1-4)GlcNAc(b1-2)Man(a1-3)[Man(a1-6)]Man(b1-4)GlcNAc(b1-4)GlcNAc
Method in brief: as §1

[32] = molecular target: Gal(b1-4)GlcNAc(b1-2)Man(a1-6)Man(b1-4)GlcNAc(b1-4)GlcNAc
Method in brief: as §1

B1: AT1G73650(15) (Arabidopsis thaliana), F4HRY1 (protein)
chain: MGTVLDSHFLALTAIVTVIYQFIFFVITALFKFDQVTDFAGSTNFVILAVLTLVLKASWHFRQIVLTLLVVVWGLRLGIFLLMETRILQWGEDRRFDEQRGNIVRLIIFWTLQAVWVWTVSLPLTLVNASDGGGSLKPADVIGWTMETWVFGFLIEAAADQQKLSFKNSPENRGKWCDVGVWKYSRHPNYFGEMETLLWWGIFVAASPVLEGAEYLVIFGPLFLTLLLLFVSGIPLLEASADKKHGNSGAYRSYKKTTSPLILFPRGVYGNLPGWFKTVFLFEFPFYSRNLPQEGRLQNSKEKEVKDD
glycan array binding signal (z-score) [1]: -0.345
glycan array binding signal (z-score) [2]: -0.873
glycan array binding signal (z-score) [3]: -0.099
glycan array binding signal (z-score) [4]: -0.519
glycan array binding signal (z-score) [5]: 0.464
glycan array binding signal (z-score) [6]: -0.364
glycan array binding signal (z-score) [7]: 0.155
glycan array binding signal (z-score) [8]: -0.611
glycan array binding signal (z-score) [9]: -0.097
glycan array binding signal (z-score) [10]: 0.864
glycan array binding signal (z-score) (Gal(b1-3)GlcNAc6S): -0.299
glycan array binding signal (z-score) [11]: -0.351
glycan array binding signal (z-score) [12]: -0.325
glycan array binding signal (z-score) [13]: -0.504
glycan array binding signal (z-score) [14]: -0.093
glycan array binding signal (z-score) [15]: -0.287
glycan array binding signal (z-score) [16]: -0.397
glycan array binding signal (z-score) [17]: -0.334
glycan array binding signal (z-score) [18]: -0.415
glycan array binding signal (z-score) [19]: -0.639
glycan array binding signal (z-score) [20]: -0.525
glycan array binding signal (z-score) (Gal(b1-4)Gal): 0.055
glycan array binding signal (z-score) [21]: -0.354
glycan array binding signal (z-score) [22]: -0.184
glycan array binding signal (z-score) (Gal(b1-4)Glc): -0.165
glycan array binding signal (z-score) (Gal(b1-4)Glc6S): 2.95
glycan array binding signal (z-score) (Gal(b1-4)GlcNAc): -0.459
glycan array binding signal (z-score) [23]: -0.191
glycan array binding signal (z-score) (Gal(b1-4)GlcNAc(b1-2)Man): -0.411
glycan array binding signal (z-score) [24]: -0.354
glycan array binding signal (z-score) [25]: -0.377
glycan array binding signal (z-score) [26]: -0.341
glycan array binding signal (z-score) [27]: -0.466
glycan array binding signal (z-score) [28]: -0.616
glycan array binding signal (z-score) [29]: -0.742
glycan array binding signal (z-score) [30]: 0.153
glycan array binding signal (z-score) [31]: -0.526
glycan array binding signal (z-score) [32]: -0.412
